# According to the supplement of paper PMC12217912:
# Some of the results follow. Sequences were assembled here from the parent chain. Values near 0.05 are background.
# B1: TEV protease; numbered along this chain (parent)
# chain: MGESLFKGPRDYNPISSSICHLTNESDGHTTSLYGIGFGPFIITNKHLFRRNNGTLVVQSLHGVFKVKDTTTLQQHLVDGRDMIIIRMPKDFPPFPQKLKFREPQREERICLVTTNFQTKSMSSMVSDTSCTFPSGDGIFWKHWIQTKDGQCGSPLVSTRDGFIVGIHSASNFTNTNNYFTSVPKNFMELLTNQEAQQWVSGWRLNADSVLWGGHKVFMVKPEEPFQPVKEATQL
# Variants of: B1
# Assay: raw area under fraction-flipped curve 0-4 h after induction (AUC4h, not background-subtracted), DNA-recorder readout of cleavage of the substrate (dimensionless); higher = more cleavage of the substrate by the protease variant
# Details: temperature: 34 °C; time window: 0-4 h after rhamnose induction
# Experimental: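 In vivo DNA recorder in E. coli TOP10(DE3) ΔrhaA at 34 °C. Each TEVp single-site mutant (parent TEVp 0) is paired with a single-site variant of the 7-mer TEVs (canonical ENLYFQ|S). The substrate sits between flexible linkers in a Bxb1-sfGFP-TEVs-SsrA fusion, so cleavage stabilises Bxb1 and speeds flipping of a recombination array, read by NGS. The value is the raw area under the fraction-flipped curve over 0-4 h after rhamnose induction (AUC4h), with ≥20 reads per time point. It is not background-subtracted; inactive controls average about 0.047.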
# 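Further: Bxb1 expression induced with 0.2% (w/v) L-rhamnose at OD600 near 0.5, cultures sampled hourly, flipped fraction per protease–substrate barcode pair counted by paired-end Illumina sequencing.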
Variant,area with substrate EALYFQS,area with substrate ECLYFQS,area with substrate EDLYFQS,area with substrate EELYFQS,area with substrate EGLYFQS,area with substrate EILYFQS,area with substrate ELLYFQS,area with substrate EMLYFQS,area with substrate EPLYFQS,area with substrate EQLYFQS,area with substrate ESLYFQS,area with substrate EVLYFQS,area with substrate EWLYFQS,area with substrate EFLYFQS,area with substrate EHLYFQS,area with substrate EKLYFQS,area with substrate ERLYFQS,area with substrate EYLYFQS,area with substrate ETLYFQS
G2E,0.103,0.11,0.103,0.102,0.0769,0.117,0.104,0.104,0.117,0.102,0.077,0.0871,0.0922,–,–,–,–,–,–
E3S,0.135,0.129,0.179,0.188,0.127,0.141,–,–,0.136,0.137,0.154,0.149,–,0.1,0.122,0.112,0.111,–,–
K7Q,0.144,0.0775,–,–,0.105,0.0966,–,0.0841,0.138,0.111,0.0425,0.105,–,0.0932,–,0.0894,0.0981,–,–
G8R,0.12,–,–,–,–,0.0217,–,0.116,–,–,–,–,–,–,–,–,–,–,–
P9M,0.0937,0.101,0.139,–,–,–,0.113,0.127,0.126,0.147,0.107,0.0046,–,0.109,–,0.112,–,–,–
P9W,0.129,0.0861,0.117,0.127,–,0.0912,0.1,0.133,–,0.127,0.111,–,–,–,0.0997,–,0.0988,0.111,–
D11M,0.0867,0.0826,0.0708,0.071,0.0111,0.0665,–,0.0679,0.0735,0.0614,0.0643,0.0708,–,–,0.0574,0.0667,0.0771,0.0647,0.0429
Y12D,0.11,0.127,–,–,0.0983,0.097,0.106,–,–,0.108,0.0932,0.0924,0.103,0.0967,–,0.0929,0.102,0.0935,0.134
N13A,0.111,0.116,0.121,–,–,0.0788,0.0937,0.0997,0.125,0.118,0.103,0.0989,–,0.131,0.0949,0.104,0.0898,0.0978,0.0941
N13D,0.146,0.0879,0.0957,0.108,0.0901,0.0824,0.0952,0.0972,–,0.135,0.0766,0.0997,–,–,–,0.112,0.122,–,–
P14R,0.137,–,0.0824,0.115,0.0898,–,0.111,–,0.112,0.124,0.112,–,0.103,0.117,0.12,0.172,0.107,–,–
P14S,0.104,0.0992,0.0827,–,0.0846,–,–,0.152,0.111,0.126,0.0931,0.0971,0.106,0.114,0.108,0.12,0.103,0.0651,0.107
I15A,0.0901,–,0.126,0.0761,0.0848,0.103,0.0876,0.0764,0.0982,0.116,0.094,0.0847,0.0974,–,–,0.0964,0.108,0.109,–
I15W,0.108,0.0464,–,0.11,0.0732,0.105,–,0.101,–,0.095,0.0862,0.0855,0.0916,–,0.0993,0.099,0.0723,0.105,0.0706
I15Y,0.105,0.0931,–,0.124,0.0936,0.0993,0.0824,0.101,0.0784,0.134,0.115,0.0856,0.0642,–,0.108,0.0932,0.105,–,–
S17E,0.124,0.103,0.142,0.11,0.107,0.102,–,–,0.115,0.136,0.107,0.0989,0.0928,0.114,0.0926,0.114,0.104,0.128,0.126
S17H,0.13,0.111,0.137,0.179,0.0821,0.112,0.0524,0.138,0.133,0.131,0.133,0.0968,0.107,–,0.13,0.129,0.0877,0.0916,0.111
S17L,0.128,0.0923,0.128,0.116,0.0818,–,–,0.103,0.109,0.128,0.131,–,0.0982,–,0.118,0.103,0.0974,–,0.119
S17M,0.129,0.0952,0.0477,0.125,0.121,0.0828,0.0949,–,0.146,0.112,0.0917,0.0969,0.117,0.141,0.0703,0.108,0.109,–,0.103
S17N,0.122,0.0974,0.136,0.132,0.113,0.105,–,0.118,0.135,0.123,0.135,–,0.0948,0.0914,0.118,–,0.0986,–,–
S18I,0.139,–,–,0.0972,0.0625,–,0.0837,0.103,0.111,0.0884,0.113,0.0937,–,–,0.12,0.0676,0.0079,–,–
S18L,0.0418,0.0907,0.0965,0.0985,0.0853,0.0876,0.0968,0.16,0.123,0.107,0.103,0.0831,–,0.0927,0.0961,0.0944,0.0977,–,0.102
I19F,0.0846,0.0837,–,0.0915,0.0571,0.0681,0.0801,0.0775,0.0886,0.0858,0.0906,0.0588,0.0611,–,0.0694,0.0755,0.0724,–,0.0691
I19L,0.124,0.116,0.114,0.172,0.123,0.102,0.122,0.134,0.154,0.14,0.0976,0.0972,0.112,0.123,0.123,0.135,0.114,–,0.128
C20D,0.0412,0.0405,0.0459,0.0403,0.0444,0.0428,0.0444,0.0452,0.0425,–,0.0423,0.0449,0.0378,–,0.038,–,–,0.0401,–
